Data reported in PubChem BioAssay AID360 (National Center for Advancing Translational Sciences (NCATS), 2006).
About 550 (1.1%) of roughly 48,000 compounds were called active. Inconclusive results (about 4%) are left out. Cut-off read from the data, not from the text of the source: active = potency below about 15 µM; inconclusive = mostly about 16 µM to 33 µM; inactive = weaker than that. Some of the results follow.

target: Lysosomal acid glucosylceramidase (Homo sapiens) (UniProt P04062); assay: Glucocerebrosidase; settings: purified enzyme, resorufin glucoside fluorescence (screen aimed at inhibitors), 20 min;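 note: the screen sought inhibitors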
Sequence of UniProt P04062 (P04062 whole entry, looked up): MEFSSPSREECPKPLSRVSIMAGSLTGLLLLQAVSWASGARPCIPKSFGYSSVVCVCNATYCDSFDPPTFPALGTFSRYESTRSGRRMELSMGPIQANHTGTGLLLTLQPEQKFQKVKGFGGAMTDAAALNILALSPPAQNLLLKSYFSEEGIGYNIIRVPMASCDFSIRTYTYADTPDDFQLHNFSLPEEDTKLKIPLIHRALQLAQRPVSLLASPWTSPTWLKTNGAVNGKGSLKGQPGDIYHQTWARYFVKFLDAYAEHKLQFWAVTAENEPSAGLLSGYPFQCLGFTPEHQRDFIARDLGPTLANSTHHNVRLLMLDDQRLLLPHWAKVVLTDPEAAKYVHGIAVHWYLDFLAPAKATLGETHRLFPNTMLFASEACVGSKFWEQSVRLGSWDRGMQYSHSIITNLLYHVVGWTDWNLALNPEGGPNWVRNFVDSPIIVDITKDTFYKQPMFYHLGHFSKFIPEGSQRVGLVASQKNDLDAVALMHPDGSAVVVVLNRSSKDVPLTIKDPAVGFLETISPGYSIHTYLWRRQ
Method in brief: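 Compounds titrated against 0.2 nM normal enzyme, 30 uM resorufin beta-D-glucopyranoside substrate, citrate/phosphate buffer with taurocholate and tween-20, pH 5.9. Reaction ran 20 min at room temperature; fluorescence (Ex 548/Em 600) gave AC50.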
Potency is the fitted concentration of half-maximal effect.

Potency, inactive:
Cc1ccc(C(=O)N(CN2CCCC2=O)c2ccccc2)cc1C > 76.9 µM, CCOc1ccccc1NC(=O)c1cc(S(=O)(=O)N2CCC3(CC2)OCCO3)ccc1F, OCCSc1nncn1/N=C/c1c[nH]c2ccccc12 > 76.9 µM, Cc1ccc(S(=O)(=O)Nc2nonc2C)cc1 > 76.9 µM, Cc1cc(C(=O)OCC(=O)NCc2ccco2)c(C)n1-c1ccc(F)cc1 > 76.9 µM, N=P(N1CCOCC1)(N1CCOCC1)C12CC3CC(CC(C3)C1)C2 > 76.9 µM, O=S(=O)(NCCCO)c1ccc2c(c1)Cc1cc(S(=O)(=O)NCCCO)ccc1-2 > 76.9 µM, O=C(OCC(=O)N1CCN(C(=O)c2ccco2)CC1)c1ccc(S(=O)(=O)N2CCCCC2)cc1 > 76.9 µM, O=C(CSc1nc(C2CCCCC2)n(-c2ccccc2)n1)NCCN1C(=O)CSC1=O, O=C(CN1CCCCCC1=O)OCc1ncc(-c2ccccc2)o1 > 76.9 µM, OCCn1c(CSc2nnc(-c3ccco3)n2-c2ccccc2)nc2ccc(Cl)cc21 > 76.9 µM, CC(Oc1ccc(Cl)cc1)C(=O)Nc1ncccn1 (stereo unspecified) > 76.9 µM, CCc1nc(NCc2ccco2)c2oc3ccccc3c2n1 > 76.9 µM, Cn1c(=O)c2cc(S(=O)(=O)NCCC(=O)N3CC=C(c4ccccc4)CC3)ccc2n(C)c1=O > 76.9 µM, O=C(CCn1c(SCC(=O)NCc2ccco2)nc2ccccc2c1=O)NCCc1ccccc1 > 76.9 µM, Cn1c(=O)[nH]c(=O)c2c1nc(SCC(O)CO)n2Cc1ccccc1Cl (stereo unspecified) > 76.9 µM, CSCC[C@H](NC(=O)NCc1cccs1)C(=O)O > 76.9 µM, COCCN1C(=O)C(O)=C(C(C)=O)C1c1ccc(OC)c(OC)c1 (stereo unspecified) > 76.9 µM, Cn1c2ccccc2c2ncn(CCN3CCOCC3)c(=O)c21 > 76.9 µM, CN(CC(=O)Nc1nccs1)S(=O)(=O)c1ccc(F)cc1 > 76.9 µM, CC(C)(CO)NCc1ccccc1OCC(=O)Nc1ccccc1 > 76.9 µM, O=C(CSc1nc2[nH]ncc2c(=O)n1-c1ccccc1)c1ccc2c(c1)OCCO2 > 76.9 µM, CCCS(=O)(=O)N1CCCC(C(=O)NCCN(CC)CC)C1 (stereo unspecified) > 76.9 µM, O=C(CSc1nnc(-c2cnccn2)n1Cc1ccco1)c1ccccc1 > 76.9 µM, CCCCN(C(=O)NC(=O)C1=C(N2CCOCC2)/C(=C/c2ccccc2)CC1)S(C)(=O)=O > 76.9 µM, Cc1cc2cc(CN3C(=O)c4ccccc4C3=O)ccc2n1C > 76.9 µM, Cc1ccccc1-n1c(C)nnc1SCc1nc2ccccc2s1 > 76.9 µM, COc1nc(C)ccc1-c1noc(-c2ccncc2)n1 > 76.9 µM, CC(=O)Nc1nc(=O)c2ccccc2s1 > 76.9 µM, CCC(=O)NC(c1ccccc1)c1nc2ccccc2[nH]1 (stereo unspecified) > 76.9 µM, Cn1c(=O)[nH]c(=O)c2c1nc(NCCCO)n2Cc1ccc(F)cc1 > 76.9 µM, Cc1nc(C)c(-c2ccccc2)c(=O)[nH]1 > 76.9 µM, CC1Cc2ccccc2N1C(=O)COC(=O)C1=COCCO1 (stereo unspecified) > 76.9 µM, CC1(C)Oc2ccc(C(=O)NC3CC3)cc2N(CC(=O)N2CCOCC2)C1=O > 76.9 µM, Cc1ccc(NC(=O)Cc2cn3ccsc3n2)nc1 > 76.9 µM, CCC(c1nnnn1CCOC)N(Cc1ccc(C)cc1)Cc1cc2cc(OC)ccc2[nH]c1=O (stereo unspecified) > 76.9 µM, Cc1c(Cl)cccc1NC(=O)CCCCCN1C(=O)CCC1=O > 76.9 µM, OC(CN1C2=NCCN2c2ccccc21)c1ccccc1 (stereo unspecified) > 76.9 µM, Cc1ccc2nc3ccc(N4CCCC4)nn3c(=O)c2c1 > 76.9 µM, CCOC(=O)C1CCCN(C(=O)C2CCN(S(=O)(=O)c3cccs3)CC2)C1 (stereo unspecified) > 76.9 µM, CCOC(=O)C1CCN(C(=O)Cc2c(F)cccc2Cl)CC1 > 76.9 µM, COc1cc2c(cc1OC)CN(C(=O)c1ccc(OC)c(S(=O)(=O)N3CCOCC3)c1)CC2 > 76.9 µM, Cc1ccnc(NS(=O)(=O)c2cccs2)c1 > 76.9 µM, Cc1ccc(-c2csc(N3CCC(NS(=O)(=O)c4ccc5c(c4)OCCO5)CC3)n2)cc1 > 76.9 µM, N#CCCCN1C(=O)C(O)(CC(=O)c2ccc3c(c2)OCCO3)c2ccccc21 (stereo unspecified) > 76.9 µM, CCC(C)Sc1nc2c(c(=O)[nH]c(=O)n2C)n1Cc1ccc(Cl)cc1 (stereo unspecified) > 76.9 µM, C/C(NCCCn1ccnc1)=C(\C#N)C(N)=O > 76.9 µM, CC1=C(C(=O)Nc2ccccc2)C(c2cccnc2)n2nc(-c3cccnc3)nc2N1 (stereo unspecified) > 76.9 µM, CCC(C)N(C(=O)c1csnn1)C(C(=O)NCc1ccc(F)cc1)c1ccco1 (stereo unspecified) > 76.9 µM, CC(=O)c1cccc(NC(=O)Nc2cnn(Cc3ccc(F)cc3)c2)c1 > 76.9 µM, COc1ccc(-c2nnc3ccc(SCC(=O)NCC4CCCO4)nn23)cc1 (stereo unspecified) > 76.9 µM, O=C(O)C1CCCN1C(=O)OCc1ccccc1 (stereo unspecified) > 76.9 µM, CCn1c(SCC(=O)Nc2cccc(C(C)=O)c2)nnc1C(C)C > 76.9 µM, CC(C)Cn1c(=O)c2ccccc2c2ccccc2c1=O > 76.9 µM, O=C(Nc1ccc2c(c1)OCCO2)c1c(F)cccc1F > 76.9 µM, CCOC(=O)N1CCC(NC(=O)C2CCC(CNS(=O)(=O)c3ccc(OC)cc3)CC2)CC1 (stereo unspecified) > 76.9 µM, O=C(Nc1nccs1)C1CCN(S(=O)(=O)c2cnc[nH]2)CC1 > 76.9 µM, COC(=O)C1CCN(C(=O)COc2ccc(Cl)cc2)CC1 > 76.9 µM, CCOCC(=O)Nc1nc2ccc(C)cc2s1 > 76.9 µM, COc1cc(NC(=O)CSc2nnc(C)s2)cc(OC)c1 > 76.9 µM, CCn1c(SCC(=O)OC2CCCCC2)nnc1-c1ccncc1 > 76.9 µM, Cc1c(/C(O)=C2/C(=O)C(=O)N(CCN3CCOCC3)C2c2cccs2)cnn1-c1ccccc1 (stereo unspecified) > 76.9 µM, CCOc1cc2[nH]c(=O)n(CCC(=O)NCCc3ccccc3)c(=O)c2cc1OCC > 76.9 µM, N#Cc1c(N)n(C2CCCCC2)c2nc3ccccc3nc12 > 76.9 µM, COc1ccc(CNC(=O)c2cc(-n3cnnc3)ccc2Cl)cc1 > 76.9 µM, CCOC(=O)c1[nH]c2ccc(F)cc2c1NC(=O)C1=COCCO1 > 76.9 µM, CCc1nc(SCC(=O)Nc2ccccc2C(=O)OC)n[nH]1 > 76.9 µM, CCCCC(=O)Nc1ccc(C(=O)N2CCN(c3ccccc3OC)CC2)cc1 > 76.9 µM, CCCn1c(SCc2nc(-c3cccs3)no2)nnc1-c1ccncc1 > 76.9 µM, O=C(NCC(c1cccnc1)N1CCOCC1)c1ccco1 (stereo unspecified) > 76.9 µM, CCOC(=O)c1ccc(NC(=O)c2c(O)c3ccccc3n(C)c2=O)cc1 > 76.9 µM, CCOC(=O)Cn1c(=O)c2c(nc3n2CCCCN3c2ccc(C)cc2)n(C)c1=O > 76.9 µM, Clc1nc2sccn2c1/C=N/n1cnc2ccccc21 > 76.9 µM, Cc1ccc(S(=O)(=O)N(C)c2ccc(OCC(=O)OCc3c(C)noc3C)cc2)cc1 > 76.9 µM, COC(=O)c1c(NC(=O)CSc2nnnn2C)sc(C)c1C > 76.9 µM, Cc1ccc(CC2CC(=O)N(c3ccc(Cl)cn3)C2=O)cc1 (stereo unspecified) > 76.9 µM, CCNc1nc(NC(C)C)nc(OCCNS(=O)(=O)c2cc(C)ccc2C)n1 > 76.9 µM, O=C(c1ccccc1)c1ccc(N2CCNCC2)cc1 > 76.9 µM, Cn1cnnc1Sc1nc2c(c(=O)n(C)c(=O)n2C)n1C > 76.9 µM, O=C(CSc1ncnc2c1cnn2-c1ccccc1)Nc1ccc2c(c1)OCO2 > 76.9 µM, O=C(NC1CCCCC1)c1noc2c1CCCCC2 > 76.9 µM, CCCCn1nnnc1NCc1ccc(OC)c(OC)c1 > 76.9 µM, CC1CCC(NS(=O)(=O)c2ccc3c(c2)n(C)c(=O)c(=O)n3C)CC1 (stereo unspecified) > 76.9 µM, N#Cc1cc(C(=O)c2cc(Cl)ccc2O)cn(CC2CCCO2)c1=O (stereo unspecified) > 76.9 µM, COc1cc(-c2nn3c(Cc4ccccc4)nnc3s2)cc(OC)c1OC > 76.9 µM, COc1ccc(OC)c(S(=O)(=O)NCc2cn3ccsc3n2)c1 > 76.9 µM, O=C(c1ccc(Cl)cc1)c1nnc(-c2ccncc2)o1 > 76.9 µM, Cc1cccc(C)c1NC(=O)CSc1nnc(-c2ccco2)n1N > 76.9 µM, CCOC(=O)Cn1nnc(-c2ccc(S(C)(=O)=O)cc2)n1 > 76.9 µM, c1ccc2c(c1)OCC(c1nnc3n1-c1ccccc1SC3)O2 (stereo unspecified) > 76.9 µM, CCC(C)(C(=O)NC1CCCC1)N(CC1CCCO1)C(=O)c1ccc2c(c1)OCO2 (stereo unspecified) > 76.9 µM
